The subject of this assay is NCI-H322M lung. In words: growth of human tumour cells (NCI), 48 h.

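Interpolation was linear, between the two tested concentrations surrounding the appropriate level; five concentrations were tested over 48 hours in 96-well plates. GI50: concentration for 50% inhibition of growth. TGI marks complete inhibition of growth.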

As to `Cn1cc(-c2nnc(N)nc2-c2c[nH]c3ccc(F)cc23)c2cc(Br)ccc21`, the GI50 is 3.72 µM and the TGI is 15.2 µM.

For the compound `Cc1cc2nc3c4cc(Cl)ccc4n(CC(=O)NCCN(C)C)c3nc2cc1C`, the GI50 was 13.1 µM and the TGI is 26 µM.
